{"source": "paper PMC12136788", "binders": {"B1": {"name": "chr19:12898785:12899385:-|three_prime_utr|ENSG00000161860|control|control|control (ssRNA)", "RNA": "GGGAGUUCUACAGUCCGACGAUCUCAGAAGUACAGACCAACAGAGAUGGUGAAUGCUGACAGCUGCCGGGAGACUCACGCCUUAGUGACAGUCUCCAGGAGAAGACUGUGAGGCCACCAUUUGGGCCACACUGAGAAAUUGUUCAACAGAGGAUUGAGCAUCA"}, "B2": {"name": "chr4:185586528:185586629:-|3pUTR|ENSG00000154556|msi1|FALSE|unique (ssRNA)", "RNA": "GGGAGUUCUACAGUCCGACGAUCAUCCAUAUGAUAUGUUGUACAUUUUAUGGAAAUGUAAUAGAAUCUCACACAUUAUUUUAUAGAAAUAGAGUACAGAAGCAUCACAAGUAUUAAAGUUGGUUUUAGCAAGGAUUAGGAUUACAACAGAGGAUUGAGCAUCA"}, "B3": {"name": "chr3:50258797:50258898:+|3pUTR|ENSG00000114353|msi1|FALSE|unique (ssRNA)", "RNA": "GGGAGUUCUACAGUCCGACGAUCGCACAAGAAGCGUGAGACGCCACCAUUCCUGGAAACCACAGUCCACCUGCUCAUUCUCGUAGCUUUUUAAAAAAAUGAAAGUAAAGGAAAAAAAAAAAACUGCAAAUCUAGAAAACUUUUCAACAGAGGAUUGAGCAUCA"}, "B4": {"name": "ENSG00000136451:be:win_3151|3pUTR|ENSG00000136451|bound_else_gene|NA|bound_elsewhere_windowed (ssRNA)", "RNA": "GGGAGUUCUACAGUCCGACGAUCUGAGACAGACUUCCUACAUCAGGGACAGGUAUCUGUGUGUCAUUAUACAAAACAGUUCUAGGGGGUUGAACUACAUAGUAAAAAAAUAAAAUAAAUAGUACUUAGUGUAAAAUAAUUUUACAACAGAGGAUUGAGCAUCA"}, "B5": {"name": "ENSG00000136451:be:win_4351|3pUTR|ENSG00000136451|bound_else_gene|NA|bound_elsewhere_windowed (ssRNA)", "RNA": "GGGAGUUCUACAGUCCGACGAUCCCCCUCCUACGGUGUGCUCCUGAAUGAAGGUUUCUAUGUAAGCAGAUGAUGAUUUUACCUGUCAAUACCAGCACUGUAUUACUAACAUGCAAAAUACUGCAGAUUUAUUUUGAAAAUUAACAACAGAGGAUUGAGCAUCA"}, "B6": {"name": "chr5:136975339:136975545:-|3pUTR|ENSG00000152377|msi1|FALSE|unique (ssRNA)", "RNA": "GGGAGUUCUACAGUCCGACGAUCAGAGCCCAUCAAAUCCUGAGUGUCAGUUUGUUGUCCCUAUUGUAGAUGAAAUAGUGAUGUAGCAAAAACCUAGUAAAUUCUGAAUGCUUUUCCACGUAGACUUAUCUGGAAUGUGAACACCAACAGAGGAUUGAGCAUCA"}, "B7": {"name": "chr12:50748518:50748596:+|3pUTR|ENSG00000066084|msi1_unk|FALSE|overlapping (ssRNA)", "RNA": "GGGAGUUCUACAGUCCGACGAUCUCAAAUUCAAACUACAGUACUGUGUAAUUAUGUAUAAAGUUUUUUUAUUUAUUUGAAGUUAGACUAGAUAUACGUUUUUAAAUUUAACAUCUGGCUGGACAGUGUUCUAUUAACUCAUUGCAACAGAGGAUUGAGCAUCA"}, "B8": {"name": "chr12:14497711:14497812:+|CDS|ENSG00000171681|unk|FALSE|unique (ssRNA)", "RNA": "GGGAGUUCUACAGUCCGACGAUCACAGCGUCUGCCCCCAGAAGCUGCCAGCACAUCUCUGCCUCAGAAGCCACACUUGAAGUUAGCACGCGUUCAGAGUCAAAAUGGCAUAGUACUGUCAUGGAGUGUCCUGGAGGUGGAUCGCAACAGAGGAUUGAGCAUCA"}, "B9": {"name": "chr1:111117940:111118053:-|3pUTR|ENSG00000156171|unk|total|mutant (ssRNA)", "RNA": "GGGAGUUCUACAGUCCGACGAUCAGGCUGACAGUAACACUGAUGAAUGCUGAUAAUCAGGAAACAUGAAAGAAGCCAUUUGACCGAUUAUUCUAAAGGAUAUCAUCAAGAAGACUAUUAAAAACACCUAUGCCUAUACUUUUUCAACAGAGGAUUGAGCAUCA"}, "B10": {"name": "chr2:96301550:96301651:-|CDS|ENSG00000144028|msi1|total|mutant (ssRNA)", "RNA": "GGGAGUUCUACAGUCCGACGAUCAAGGCGAAAGGAGAUUGACCUGCUGCUGGGUCAAACAGAUGAUACCAGAUACCAUGUGCCCGUGAACCUGGGCAAAAAGAUCACAGACUAUGGUGGAGAUAAGGAAAUCCAAAAUAUGGGCAACAGAGGAUUGAGCAUCA"}, "B11": {"name": "chr4:140550230:140550341:+|CDS|ENSG00000179387|unk|FALSE|unique (ssRNA)", "RNA": "GGGAGUUCUACAGUCCGACGAUCGAAUUUGACAAGUUUUGGUUUGAAGAAGAACCAGAAAGCAUUAUGUAUUUCAAUUUGUAUAGAGAGAAGUUUCAUGAAAAGAUUAAAGGACUUUUACUGGAUUGUAAUGUAGCACUUACUCAACAGAGGAUUGAGCAUCA"}, "B12": {"name": "chr15:65327126:65328908:-|three_prime_utr|ENSG00000174498|control|control|control (ssRNA)", "RNA": "GGGAGUUCUACAGUCCGACGAUCUGAACUAACAUUUUUCUUUAAAAAGCAAAACUUAAAAAAAAAAAAAAAGAGGAGAGAGAUAGAGGAAGGUGAAUUAGACUCCAAAAGAUGACCCUGCUGUAGCUGGGCCCUGACACUGUCCAACAGAGGAUUGAGCAUCA"}, "B13": {"name": "ENSG00000070961:be:win_3201|CDS|ENSG00000070961|bound_else_gene|NA|bound_elsewhere_windowed (ssRNA)", "RNA": "GGGAGUUCUACAGUCCGACGAUCAUUCCUCAAAGAAGCUGGUCAUGGAACACAAAAGGAAGAAAUACCUGAGGAGGAAUUAGCAGAGGAUGUUGAAGAGAUUGAUCACGCUGAAAGGGAGUUGCGGCGUGGCCAAAUCUUGUGCAACAGAGGAUUGAGCAUCA"}, "B14": {"name": "ENSG00000130818:stop:overlap|stop_codon|ENSG00000130818|stop_codon|NA|stop_codon (ssRNA)", "RNA": "GGGAGUUCUACAGUCCGACGAUCAGCAAUGCGGGAAAGCUUACAGUCAUCCCCGUUCACUUCGAAGACAUGAACAAAUUCACUAGUGAGAAACUGUCCAUGUAAUAAAUGUGGGAAAGCUCUCAUUUGUUCCAGUUCACUUUACAACAGAGGAUUGAGCAUCA"}}, "note": "This is one part of the list."}
{"target": "T1, UNK ZnF1-6 (called full-length) (human, UniProt Q9C0B0 30-357)", "T1 sequence": "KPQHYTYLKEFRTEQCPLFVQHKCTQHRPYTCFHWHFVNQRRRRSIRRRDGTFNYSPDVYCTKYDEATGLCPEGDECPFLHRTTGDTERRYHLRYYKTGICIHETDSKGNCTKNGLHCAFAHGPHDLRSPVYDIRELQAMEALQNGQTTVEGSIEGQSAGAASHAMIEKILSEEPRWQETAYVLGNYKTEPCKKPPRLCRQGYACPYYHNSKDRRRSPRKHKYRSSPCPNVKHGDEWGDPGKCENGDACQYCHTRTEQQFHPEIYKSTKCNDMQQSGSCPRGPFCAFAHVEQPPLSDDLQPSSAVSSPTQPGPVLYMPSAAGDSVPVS", "experiment": "nsRBNS (natural sequence RNA bind-n-seq); RBNS binding buffer (assumed for nsRBNS): 25 mM Tris pH 7.5, 150 mM KCl, 3 mM MgCl2, 0.01% Triton X-100, 500 ug/ml BSA, 20 U/ml SUPERase-In, 4 C; UNK is unkempt and MSI1 is Musashi-1; names of the RNAs are library labels; protein concentration not given here; high values mean tight binding", "units": {"binding signal": "enrichment R"}}
{"binder": "B1", "binding signal": 0.504}
{"binder": "B2", "binding signal": 11.6}
{"binder": "B3", "binding signal": 2.62}
{"binder": "B4", "binding signal": 44}
{"binder": "B5", "binding signal": 0.632}
{"binder": "B6", "binding signal": 7}
{"binder": "B7", "binding signal": 6.56}
{"binder": "B8", "binding signal": 0.627}
{"binder": "B9", "binding signal": 0.383}
{"binder": "B10", "binding signal": 0.638}
{"binder": "B11", "binding signal": 0.651}
{"binder": "B12", "binding signal": 1.85}
{"binder": "B13", "binding signal": 0.718}
{"binder": "B14", "binding signal": 2.96}
